Test results reported in US20240115500A1, “POLYMERIC MICELLE COMPLEXES OF MRNA OR ZWITTERIONIC AGENTS, AND FORMULATIONS AND USES THEREOF” (Aravasc Inc., priority 2020, published 2024).

Experiment: Agarose gel electrophoresis of protein + PBC formulations (Example 1)
Type: physicochemical
Details: PBC:protein ratios of 3:1, 9:1 and 30:1 w/w; PBS pH 7.4; room temperature, 10-20 minutes; FIG. 1

Substance: Semaglutide
- complexation with PBC (agarose gel): observed to complex
